# Source: a collection of fitness landscapes (doi:10.1126/science.1257360)
# This is one part of the list.
# B1: PhoQ; a variant is named by its letters at X, in order, P23837 (parent)
# chain: MKKLLRLFFPLSLRVRFLLATAAVVLVLSLAYGMVALIGYSVSFDKTTFRLLRGESNLFYTLAKWENNKLHVELPENIDKQSPTMTLIYDENGQLLWAQRDVPWLMKMIQPDWLKSNGFHEIEADVNDTSLLLSGDHSIQQQLQEVREDDDDAEMTHSVAVNVYPATSRMPKLTIVVVDTIPVELKSSYMVWSWFIYVLSANLLLVIPLLWVAAWWSLRPIEALAKEVRELEEHNRELLNPATTRELTSLVRNLNRLLKSERERYDKYRTTLTDLTHSLKTPLXXLQXXLRSLRSEKMSVSDAEPVMLEQISRISQQIGYYLHRASMRGGTLLSRELHPVAPLLDNLTSALNKVYQRKGVNISLDISPEISFVGEQNDFVEVMGNVLDNACKYCLEFVEISARQTDEHLYIVVEDDGPGIPLSKREVIFDRGQRVDTLRPGQGVGLAVAREITEQYEGKIVAGESMLGGARMEVIFGRQHSAPKDE
# Variants of: B1
# Assay: enrichment ratio after two sorts for PhoP signalling (ratio (wild type AVST 3.29)); higher = more functional
# Details: with PhoP (E. coli)
row,Variant,enrichment ratio
1,MYGW,≤ 0.25
2,RRGP,≤ 0.25
3,QHYH,≤ 0.25
4,DFVP,≤ 0.25
5,RMMT,≤ 0.25
6,RGLW,≤ 0.25
7,NALQ,≤ 0.25
8,PIWG,≤ 0.25
9,IYKY,≤ 0.25
10,TPWY,≤ 0.25
11,DPEY,≤ 0.25
12,DTDT,≤ 0.25
13,INSM,0.298
14,LMYE,≤ 0.25
15,SYNI,≤ 0.25
16,VAIN,≤ 0.25
17,LYPA,≤ 0.25
18,WPNW,≤ 0.25
19,PLDP,≤ 0.25
20,LIHM,≤ 0.25
21,QEPQ,≤ 0.25
22,FVIL,≤ 0.25
23,LFVL,≤ 0.25
24,SFYD,≤ 0.25
25,HHSK,≤ 0.25

row,Variant,enrichment ratio
1,SHNN,0.915
2,QLFN,≤ 0.25
3,AEHK,≤ 0.25
4,LHML,≤ 0.25
5,VCLG,3.83
6,QKSM,≤ 0.25
7,PNTE,≤ 0.25
8,KTNK,≤ 0.25
9,DHSW,≤ 0.25
10,GWYA,≤ 0.25
11,GQFM,≤ 0.25
12,FTWK,≤ 0.25
13,DYDW,≤ 0.25
14,VKQS,2.04
15,WPGF,≤ 0.25
16,TPHT,≤ 0.25
17,FSAI,4.16
18,SSGR,≤ 0.25
19,PRNG,≤ 0.25
20,AWRR,≤ 0.25
21,EPCV,≤ 0.25
22,IMNN,≤ 0.25
23,QDSG,≤ 0.25
24,EVMK,≤ 0.25
25,GLVD,≤ 0.25

row,Variant,enrichment ratio
1,LPAW,≤ 0.25
2,SLRM,≤ 0.25
3,TKCC,13.1
4,HFWN,≤ 0.25
5,LCNW,≤ 0.25
6,YNYG,≤ 0.25
7,HMLP,≤ 0.25
8,DIQG,≤ 0.25
9,NMDR,≤ 0.25
10,PGVW,≤ 0.25
11,TDDY,≤ 0.25
12,LGYG,≤ 0.25
13,MNQM,≤ 0.25
14,ATKP,≤ 0.25
15,LMPE,≤ 0.25
16,HEYG,≤ 0.25
17,ISGI,≤ 0.25
18,FDYK,≤ 0.25
19,YPAN,≤ 0.25
20,MRLY,≤ 0.25
21,EFGD,≤ 0.25
22,VDGR,≤ 0.25
23,SSQC,1.27
24,AGRP,≤ 0.25
25,YTGH,≤ 0.25

row,Variant,enrichment ratio
1,YAYH,≤ 0.25
2,HDGY,≤ 0.25
3,RMYK,≤ 0.25
4,LDGR,≤ 0.25
5,DNWV,≤ 0.25
6,PSTM,≤ 0.25
7,PREA,≤ 0.25
8,PNCS,≤ 0.25
9,KSAW,≤ 0.25
10,LSKS,≤ 0.25
11,HGRT,≤ 0.25
12,TPEC,≤ 0.25
13,SWAF,≤ 0.25
14,SNMR,1.49
15,KNPG,≤ 0.25
16,GQEI,≤ 0.25
17,DVTM,≤ 0.25
18,FVGS,0.536
19,TVRI,≤ 0.25
20,TVAN,16.9
21,KVCL,≤ 0.25
22,RFTG,≤ 0.25
23,HENE,≤ 0.25
24,GDAC,≤ 0.25
25,IKER,≤ 0.25

row,Variant,enrichment ratio
1,IKTW,≤ 0.25
2,FYFN,≤ 0.25
3,SWNW,≤ 0.25
4,HRMG,≤ 0.25
5,QKAM,≤ 0.25
6,QMQP,≤ 0.25
7,SKIK,≤ 0.25
8,EAEI,≤ 0.25
9,WPHL,≤ 0.25
10,QQQC,≤ 0.25
11,NSAW,≤ 0.25
12,WCCL,≤ 0.25
13,PSRR,≤ 0.25
14,LEEY,≤ 0.25
15,NDGH,≤ 0.25
16,TQCC,65
17,SRYA,≤ 0.25
18,WYPT,≤ 0.25
19,WDFS,≤ 0.25
20,HTSL,0.568
21,HLPV,≤ 0.25
22,FSGT,≤ 0.25
23,HEVI,≤ 0.25
24,RPCR,≤ 0.25
25,KQHR,≤ 0.25

row,Variant,enrichment ratio
1,FTYL,≤ 0.25
2,MWQP,≤ 0.25
3,GVGP,≤ 0.25
4,SVIY,≤ 0.25
5,TNTI,15.8
6,YTRI,≤ 0.25
7,KTLC,≤ 0.25
8,WPRV,≤ 0.25
9,YPCG,≤ 0.25
10,GNSK,≤ 0.25
11,RIQM,≤ 0.25
12,TVIH,≤ 0.25
13,NCSC,0.253
14,IGPN,≤ 0.25
15,PTMR,≤ 0.25
16,QYWL,≤ 0.25
17,VPVA,≤ 0.25
18,PRLC,≤ 0.25
19,NRLW,≤ 0.25
20,PVWE,≤ 0.25
21,NNYE,≤ 0.25
22,RKDL,≤ 0.25
23,QENK,≤ 0.25
24,PCSG,≤ 0.25
25,FQMW,≤ 0.25

row,Variant,enrichment ratio
1,HPWG,≤ 0.25
2,ASAF,15.1
3,RKVK,≤ 0.25
4,HTMD,≤ 0.25
5,SFTP,≤ 0.25
6,ELLG,≤ 0.25
7,DEWM,≤ 0.25
8,NVQY,≤ 0.25
9,FGVA,≤ 0.25
10,GMWP,≤ 0.25
11,ARPF,≤ 0.25
12,ASLC,16.7
13,NSTD,≤ 0.25
14,GEHC,≤ 0.25
15,AFFT,1.38
16,TSEC,0.526
17,DRTM,≤ 0.25
18,TSWM,16.2
19,LACR,≤ 0.25
20,MEGM,≤ 0.25
21,TISG,19.4
22,MVTV,≤ 0.25
23,RMIK,≤ 0.25
24,QYLW,≤ 0.25
25,RYTS,≤ 0.25

row,Variant,enrichment ratio
1,YWSY,≤ 0.25
2,FDRE,≤ 0.25
3,YELS,14.9
4,LLWV,≤ 0.25
5,TETF,9.65
6,SDTL,≤ 0.25
7,LWWE,≤ 0.25
8,IGYQ,≤ 0.25
9,DKLS,0.778
10,DRAT,≤ 0.25
11,TPPN,≤ 0.25
12,KPKG,≤ 0.25
13,IYWY,≤ 0.25
14,QGSC,12
15,NNIF,≤ 0.25
16,IKNI,≤ 0.25
17,WGEF,≤ 0.25
18,NWNH,≤ 0.25
19,PHKV,≤ 0.25
20,MNED,≤ 0.25
